Reference: the BET-seq Pho4 binding data (Le et al. 2018)
Some of the results follow. Values were computed here from the reads of four pooled replicates and scatter widely.

What follows are sequences tested against T1, Pho4 (S. cerevisiae) (UniProt P07270) (assay: relative binding free energy (BET-seq); higher = weaker binding). Settings: reference: library average.
T1 sequence: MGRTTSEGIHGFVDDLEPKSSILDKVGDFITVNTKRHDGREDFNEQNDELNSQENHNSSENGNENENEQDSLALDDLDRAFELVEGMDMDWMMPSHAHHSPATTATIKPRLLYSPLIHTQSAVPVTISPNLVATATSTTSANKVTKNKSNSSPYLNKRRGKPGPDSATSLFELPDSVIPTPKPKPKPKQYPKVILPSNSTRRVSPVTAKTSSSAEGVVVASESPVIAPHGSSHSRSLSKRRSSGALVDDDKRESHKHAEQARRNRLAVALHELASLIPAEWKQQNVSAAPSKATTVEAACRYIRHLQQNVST

Sequence	relative binding free energy [kcal/mol]
GGGGTCACGTGAAGGC	0.37
CTTAGCACGTGAGGGT	0.1
TAAGTCACGTGACGGT	0.16
TGTATCACGTGAGCGA	0.37
GTATGCACGTGCGTGG	-0.1
TTTACCACGTGTGGTT	-0.05
GGTAGCACGTGTGAAG	0
TGATTCACGTGAGTGA	0.4
GACGGCACGTGGTTTA	-0.09
ACTAGCACGTGGTTGT	-0.04
TGGGGCACGTGGGTTG	-0.17
TGAGTCACGTGTAAAT	0.29
TTTTTCACGTGGTGTG	0.27
TTGAGCACGTGACGTA	0.06
AGTTGCACGTGGTATG	-0.08
TGAATCACGTGGTTTT	0.19
GGTGTCACGTGAGAGG	0.24
ACTTACACGTGTTGGT	0.05
AGAGTCACGTGCGGTA	0.11
GGATTCACGTGACGGA	0.49
TCATTCACGTGTTGGA	0.32
GTGGGCACGTGGATCT	-0.04
ATGATCACGTGAGCGT	0.42
GTTGACACGTGGGGCG	-0.05
TCGTTCACGTGCTTTG	0.19

Sequence	relative binding free energy [kcal/mol]
TAGTACACGTGGGTGA	-0.07
ATCGTCACGTGCTTGT	0.07
TCGTGCACGTGAGGAA	0.3
ACTATCACGTGTTGTG	-0.01
AATAGCACGTGGGAAG	-0.05
TATGGCACGTGGTAGT	-0.14
GGAAGCACGTGGGCAT	-0.24
GGTAACACGTGTAGGA	0.04
GTACGCACGTGTTGAT	0.09
AAAATCACGTGGTTTC	0.31
TGTGTCACGTGTGGCC	0.14
TGGAGCACGTGGCGCT	-0.18
TTAGACACGTGGATTA	-0.06
TGACACACGTGGTTGG	-0.12
ATGGACACGTGTTTTG	0.04
TTTGTCACGTGGGTCA	-0.04
GATCTCACGTGTAGGG	0.21
TTCGCCACGTGGTAGG	-0.12
AGGGGCACGTGCCTGA	-0.12
TGGTGCACGTGTGTGA	0.06
TTTATCACGTGTGTTA	0.15
GGTTTCACGTGGGGTT	0.28
ATGTACACGTGGATGT	0.1
AATTACACGTGGGGTG	-0.1
CGTTTCACGTGCGGGG	0.2

Sequence	relative binding free energy [kcal/mol]
CGGCGCACGTGTATGT	0
ATTGTCACGTGGTCGG	-0.02
GGGAGCACGTGGGGTA	-0.16
TTCTTCACGTGTGTGA	0.43
GTTCACACGTGTGCGT	0.17
TTTAGCACGTGAGGCG	0.04
TTTGACACGTGGGCGA	-0.13
GTTATCACGTGCTTTT	0.22
TATAGCACGTGGTTAT	-0.14
TGGCGCACGTGGTTGT	-0.21
AAATGCACGTGAGTTT	0.11
AATGGCACGTGTGGAG	-0.03
ATTTGCACGTGGTGGC	-0.06
ATGGGCACGTGTCTAT	-0.25
AGTTTCACGTGTTGTC	0.26
TTTCGCACGTGAAGTG	0.18
CAGTTCACGTGGGCGA	0.21
TATATCACGTGGGTGG	0.03
TGGTGCACGTGTACTG	-0.02
GGGATCACGTGATTAT	0.21
TACTGCACGTGTTGAG	-0.03
AACTTCACGTGGTTTG	0.19
TGAGTCACGTGCTTAG	0.21
TGACGCACGTGGAGGA	-0.1
ACTGGCACGTGGTGGG	-0.2

Sequence	relative binding free energy [kcal/mol]
GATTTCACGTGTCAGG	0.3
TTAATCACGTGTATGC	0.03
ATATTCACGTGGGTCA	0.08
TTTGCCACGTGGTTCG	-0.03
TTATTCACGTGTCGTT	0.31
GGTAACACGTGAGGCG	0.38
TGTGCCACGTGTGAGA	0.01
ATTGGCACGTGGTTTT	-0.09
GCCTGCACGTGAAGGG	0.32
GTATGCACGTGCGGAT	-0.01
TCTCGCACGTGGAGGG	-0.11
TGCGTCACGTGGGTAT	-0.13
GGTTGCACGTGACGGC	0.11
TTCTTCACGTGCTGTT	0.14
GTGCTCACGTGGTCGG	0.05
TATGGCACGTGCTATG	-0.24
GTGATCACGTGTAGAA	0.23
AATGCCACGTGTTGGG	0
GTAAACACGTGTTTAA	0.08
AGCTACACGTGTAGTT	0.16
TTAGTCACGTGATAGA	0.33
GGTACCACGTGTAGGT	0.12
GGGGACACGTGAAGGC	0.28
TGACTCACGTGATGTG	0.2
ACAGGCACGTGTTGTT	-0.12

Sequence	relative binding free energy [kcal/mol]
ATCGACACGTGTTGGG	0.07
GGTACCACGTGGCGTG	-0.14
TTCTTCACGTGTAGTG	0.22
GGCAGCACGTGGTGGT	-0.02
CGGTTCACGTGTTTAA	0.37
CGGGACACGTGGGTGC	-0.2
TTAATCACGTGCGTGG	0.17
GATGGCACGTGGAAAA	0.25
TGAATCACGTGTGACG	0.14
GGGCGCACGTGCGGAA	-0.05
AGGGTCACGTGATATA	0.15
TTATTCACGTGAAATG	0.3
GGTGGCACGTGAGAGA	0.18
TAATACACGTGCTGGT	-0.01
ATGTACACGTGTGCAA	0.26
TAGGCCACGTGTTTTG	0.02
GTTAACACGTGGAGAG	0.1
ACTGTCACGTGATTTT	0.26
CTCTTCACGTGGTGTT	0.08
AAATTCACGTGGGTAT	0.16
GTTATCACGTGGGGTT	0.14
ATTGACACGTGGGCAT	-0.22
CCTTGCACGTGGTTTT	-0.14
CTATTCACGTGCGTGT	0.18
TTGTGCACGTGATACT	0

Sequence	relative binding free energy [kcal/mol]
TTTTACACGTGGAGCT	0.02
TAGCGCACGTGAGTGA	0.15
CTGGTCACGTGAATGG	0.41
AGTAACACGTGTTTGT	-0.11
AGTCGCACGTGTGGTG	0.13
CGTTCCACGTGGTAGG	-0.03
TGTTTCACGTGCAGTG	0.26
TACGTCACGTGTGGTT	0.09
GGCGGCACGTGGGGGG	-0.19
GGCCGCACGTGGGTGA	-0.19
TGCGGCACGTGACTGT	-0.06
AATAGCACGTGATTTG	-0.05
CGGTGCACGTGCGCGT	-0.1
AGTATCACGTGGTGAT	-0.02
CTGGACACGTGAGATT	0.4
TTTTCCACGTGGTAGG	0.03
CTTTGCACGTGGCGTA	-0.05
TGACGCACGTGGCATT	0.07
CGTGGCACGTGACGGA	0.16
GATTCCACGTGTGTGG	0.23
GTTGCCACGTGTAGTT	0.08
